Reference: PubChem BioAssay AID1508624 (National Center for Advancing Translational Sciences (NCATS), 2021)
About 120 (0.25%) of roughly 48,000 compounds were called active. Not shown: some 4% with an inconclusive outcome. The call rests on the fitted dose curve; in most records, active means well fitted activation curve with a large enough effect; inconclusive means small, poorly fitted or top-dose-only effect, or another doubt; inactive means no such curve, though single readings can be large or run the other way. Some of the results follow.

Test: Primary qHTS for Identification of Small Molecule Activators of Huntingtin-Antisense Promoter Activity; further: nearly all actives have a fitted effect of over 55% in size
Conditions: HEK293 HTT-AS promoter firefly luciferase reporter, 24 h; series mostly up to 57.5 µM; activity change, positive = activation: at the top concentration
Summary of the method: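 HEK293 luciferase promoter-reporter cells (2,500/well) plated 24 h, then compounds added at up to 57.5 uM final for 24 h at 37 °C. Firefly luminescence by Dual-Glo, normalized to vehicle (0%) and zero RLU (-100%).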

Activity change, positive = activation, inactive:
CCOC(=O)c1ccc(NS(=O)(=O)c2ccc3[nH]c4c(c3c2)CCCCC4)cc1 -28.9%
CCC(=O)c1c(O)cc(O)cc1O -15.8%
Cc1oc(-c2ccc(C(=O)Nc3ccccc3F)cc2)nc1COc1ccccc1 -1.72%
CCN1C(=O)C(Cc2nc3ccccc3c(=O)n2-c2ccccc2)c2cc(Br)ccc21 (centres undefined) -33%
COc1ccc(C)cc1NC(=O)CSc1nc(=O)n(Cc2ccccn2)c2c1CCC2 -34.3%
CC(=O)N1CCCc2cc(S(=O)(=O)Nc3ccc(C)c(F)c3)ccc21 -23.8%
Cc1oc2c(c(C)cc3oc(=O)c(CC(=O)NCc4ccc(F)cc4)c(C)c32)c1C -4.39%
Cc1cccc(C)c1NC(=O)CN1C(=O)c2cccc3cccc1c23 -1.83%
CCOc1ccc(NC(=O)CN2C(=O)C3(SCC(=O)N3c3ccc(F)cc3)c3ccccc32)cc1 (centres undefined) -9.78%
COc1ccc(CNc2oc(-c3ccc(COc4ccc(OC)cc4)o3)nc2C#N)cc1 -30.3%
Cc1cccc(NC(=O)C2CCCN(c3nc4ccccc4s3)C2)c1C (centres undefined) 12.4%
Cc1ccc(C)c(N2CCN(CCCNC(=O)Nc3ccc(Cl)cc3)CC2)c1 -32.1%
CCOC(=O)C1CCCN(C(=O)Cn2nc(CC)n3c(cc4occc43)c2=O)C1 (centres undefined) -16.6%
CCOc1ccccc1NC(=O)CN1C=NS(=O)(=O)c2ccccc21 -8.23%
Cc1ccc(CCNC(=O)c2ccc(CS(=O)(=O)Cc3ccccc3F)o2)cc1 -18.2%
COc1cccc2cc(-c3nc(-c4ccc(C)cc4)c(C)s3)c(=O)oc12 8.73%
Cc1ccc(C(=O)Nc2ccc3nc(N4CCCCC4)cc(C)c3c2)cc1F -31.5%
Cc1ccc(NC(=O)CCNS(=O)(=O)c2ccc3c(c2)CCCC(=O)N3)cc1 -15%
CC(=O)c1ccc(N2C(=O)N(Cc3cc(C)ccc3C)c3ccccc3S2(=O)=O)cc1 -28.1%
Cc1cc(Nc2ccc(F)cc2)nc(-n2nc(C)cc2C)n1 -23.1%
O=S(=O)(Nc1ccc(Cl)cc1)c1cccc(S(=O)(=O)c2ccc(Cl)c(Cl)c2)c1 -23.2%
CCOC(=O)C1(C)C=C(Nc2ccc(C(=O)O)cc2)C(=O)N1c1ccc(C(=O)O)cc1 (centres undefined) -9.06%
CCCCN(C)C(=O)Cn1c(SCC(=O)Nc2ccc(C)c(C)c2)nc2ccccc21 -21.3%
CC1Cc2ccccc2N1NC(=O)c1ccc(Cl)c(S(N)(=O)=O)c1 (centres undefined)
Cc1nc2ccccc2n1CCc1nc2c3ccccc3nc(SCc3ccc(F)cc3)n2n1 -10.6%
Cc1cccc(Nc2c3c(nc4nncn24)CCC3)c1C -36.8%
COc1ccc2c(c1)c1c(c(=O)n(-c3ccccc3C)c(=O)n1Cc1c(F)cccc1Cl)n2C -0.996%
COc1ccccc1N1CCN(CC(O)COc2ccc(C)cc2C(C)(C)C)CC1 (centres undefined) -27.4%
CCOC(=O)c1c(C)oc2nc(C)nc(NCC3CCN(Cc4cccc(Cl)c4)CC3)c12 -12.3%
O=C(CSc1nc2ccsc2c(=O)n1Cc1ccccc1Cl)NCc1ccc(Cl)cc1 -10.1%
O=C(CSc1nc2ccccc2n1Cc1c(F)cccc1Cl)N1CCN(c2ccc(F)cc2)CC1 -7.74%
CCOc1cc(CNC(=O)c2ccc3nc(CCc4ccccc4)oc3c2)ccc1OC 4%
COc1ccc(NC(=O)CN2C(=O)C3(SCC(=O)N3c3cccc(OC)c3)c3ccccc32)cc1 (centres undefined) -7.77%
Cc1ccc(S(=O)(=O)NCCc2csc3nc(-c4ccccc4C)nn23)cc1 -23.4%
Cc1ccc(CNC(=O)C(C)n2ccc3cc(S(=O)(=O)N4CCCC4)ccc32)cc1 (centres undefined) -19.8%
O=C(Nc1nnc(SCc2cc(=O)n3cc(Cl)ccc3n2)s1)c1cccc(F)c1 3.39%
O=C(c1ccc2c(Cl)c3c(nc2c1)CCCC3)N1CCN(c2ccccc2F)CC1 -6.4%
COc1ccc(N2CC(NC(=O)c3c(F)cccc3Cl)CC2=O)cc1OC (centres undefined) -9.89%
CCC(C(=O)N1CCN(c2ccccc2)CC1)n1nc(C)c2sc3ccccc3c2c1=O (centres undefined) -10.7%
Cc1ccccc1NC(=O)c1cnc2sc(N3CCCC3)nn2c1=O -6.16%
CCOc1ccc(N2CC(c3nc4ccccc4n3CCOc3ccc(CC)cc3)CC2=O)cc1 (centres undefined) -15.9%
CC1=C(C(=O)Nc2cccc(C(F)(F)F)c2)C(c2ccccc2)n2ncnc2N1 (centres undefined) -14.9%
CCc1cccc(C)c1NC(=O)CCn1nc(C)c2c(C)n(-c3ccccc3)nc2c1=O -17.1%
CCOc1ccccc1O[C@H](c1ccccc1)[C@H]1CNCCO1 -2.12%
COc1ccc(NC(=O)Cc2noc3ccc(C)cc23)cc1Cl -27.6%
COc1cccc(N2CC(NC(=O)C3CC3)CC2=O)c1 (centres undefined) 3.06%
COc1ccc(NC(=O)Cn2c(=O)n(-c3ccc(C)c(C)c3)c(=O)c3c(C)c(C)sc32)cc1 0%
Cc1ccc(CCNC(=O)c2ccc(NC(=O)N3CCSc4ccccc43)cc2)cc1 -0.855%
Cc1ccc(C)c(N2CCN(c3nc4c(S(=O)(=O)c5ccccc5)nnn4c4ccc(Cl)cc34)CC2)c1 0%
CCOc1ccc2c(c1)c(=O)c(C(=O)c1ccc(CC)cc1)cn2CC(=O)Nc1ccccc1C -11.6%
COc1ccc(N2CCN(c3cc(C)nc4nncn34)CC2)cc1 -31.9%
CCOC(=O)c1c(S(=O)(=O)N2CCC(C(=O)Nc3cccc(C)n3)CC2)c(C)n(C)c1C 18.7%
CCCN(C(=O)c1cc2c(=O)oc3ccccc3c2s1)c1ccccc1C -40.8%
CCC(C)NC(=O)Cn1c(=O)ccc2cc(S(=O)(=O)N3CCCC3)ccc21 (centres undefined) -12.1%
Cc1ccc(NC(=O)Cn2nnc(C(=O)NCCc3ccccc3)c2N)cc1Cl -0.371%
CCc1ccc2c(c1)c(=O)c(S(=O)(=O)c1ccccc1)cn2CC(=O)Nc1ccc(OC)cc1 -12.9%
COCC(=O)N1c2nc(-c3ccco3)nn2C2(CCCCC2)[C@@H]2CCCC[C@@H]21 -21.9%
Cc1cccc(C#Cc2ccccc2)n1 -4.75%
Cc1cccc(N2CCN(Cc3nnc(-c4ccc5c(c4)OCO5)o3)CC2)c1C -0.418%
CCc1nn2c(=O)cc(COc3ccc(/C=C(\C#N)C(=O)Nc4ccc(C)cc4)cc3)nc2s1 -9.5%
O=C(Cn1c(=O)c2cccn2c2ccc(F)cc21)N1CCN(c2ccccc2)CC1 -3.76%
CCc1ccc(NC(=O)Cn2c(=O)n(CC3CCCO3)c(=O)c3cc(OC)c(OC)cc32)cc1 (centres undefined) -19.6%
Cc1ccc(-c2cc(C(F)(F)F)c(C#N)c(SCC(=O)O)n2)cc1 -4.89% [at 11.5 µM, percent change from vehicle, -100% = no light]
COc1ccc(NC(=O)Nc2ccccc2OCc2cc(=O)n3ccccc3n2)c(OC)c1 -0.752%
Cc1ccccc1CNC(=O)C(=O)NCC(c1cccs1)S(=O)(=O)c1ccc(Cl)cc1 (centres undefined) -38%
O=C(CN1C(=O)C2CCCCN2c2ccc(C(=O)N3CCCC3)cc21)NCc1cccc(F)c1 (centres undefined) -15.2%
Cc1cc(C)cc(NC(=O)Cn2c3ncccc3c(=O)n2-c2ccc(C)c(C)c2)c1 -16.7%
Cc1ccc(CSc2ncc(Cl)c(C(=O)Nc3sc4c(c3C(N)=O)CCCC4)n2)cc1 -13%
O=C(Cn1cnc2nc3c(cc2c1=O)CCCC3)N1CCN(c2ccccc2)CC1 1.04%
Cc1c(Cl)cccc1NC(=O)CSc1nc(=O)n(Cc2cccnc2)c2c1CCC2 -6.31%
Cc1c(Cl)cccc1-n1ncc(C(=O)Nc2ccc(F)cc2F)c1C1CCN(C(=O)OC(C)(C)C)CC1 -24.7%
O=C1CC(c2nc(-c3ccccc3)no2)CN1c1ccc2c(c1)OCCO2 (centres undefined) -5.24%
COC(=O)C1CCN(C(c2ccccc2)c2sc3nc(-c4ccco4)nn3c2O)CC1 (centres undefined) 2.37%
Cc1ccc(Cn2cc(S(=O)(=O)c3ccc(C)cc3)c(=O)c3cc(F)c(N4CCCC4)cc32)cc1 -4.59%
CCOc1cccc(NC(=O)c2ccc(F)c(S(=O)(=O)N(CC)c3cccc(C)c3)c2)c1 -29.9%
Cc1ccc(CNC(=O)C2CCN(C(=O)c3cnn(-c4ccccc4)c3-n3cccc3)CC2)cc1 -39.2%
C[C@H](O)C(=O)Nc1c(I)c(C(=O)NC(CO)CO)c(I)c(C(=O)NC(CO)CO)c1I -3.14%
COCCN1Cc2cccc(C(=O)Nc3ccc(Cl)cc3Cl)c2C1=O -21.6%
CC(=O)N1CCc2c(sc3c2c(=O)n(CCc2ccccc2)c(=O)n3Cc2cccc(C)c2)C1 -35.6%
O=c1c(=O)n(Cc2c(F)cccc2Cl)ccn1Cc1ccccc1 -4.92%
CC(C)NC(=O)Cn1nc(N2CCN(c3ccccc3)CC2)ccc1=O -9.42%
COc1ccc2oc(-c3ccc(C)c(NC(=O)CSc4ccc(Cl)cc4)c3)nc2c1 3.34%
CCOc1cc(C2C(C(=O)OC)=C(C)NC3=C2C(=O)c2ccccc23)c(Br)cc1O (centres undefined) -18.3%
CC(=O)N1c2ccc(S(=O)(=O)N3CCN(c4cccc(Cl)c4)CC3)cc2CC1C (centres undefined) -19.9%
Cc1ccc(-c2c3c(=O)n(C)c(=O)n(C)c3cn2-c2cc(C)ccc2O)cc1 -12.6%
COc1ccc(N2CCN(C3C(=O)c4ccccc4N3C(C)=O)CC2)cc1 (centres undefined) -14.3%
COc1cccc(NC(=O)Cn2c(=O)n(CC(=O)NCCc3ccccc3)c(=O)c3sccc32)c1 -15.9%
CN(C1CCc2c(c3ccccc3n2CC(=O)O)C1)S(=O)(=O)c1ccc(F)cc1 (centres undefined) -2.92%
Cc1ccc(NC(=O)c2oc3ccc(S(=O)(=O)N4CCC5(CC4)OCCO5)cc3c2C)c(C)c1 -40%
COCCn1c(SCC(=O)Nc2ccc(C(F)(F)F)cc2)nc2c([nH]c3ccccc32)c1=O -17.7%
O=c1cc[nH]c(=S)[nH]1 10.8%
O=C(NCc1ccc2c(c1)CCN2C(=O)c1ccccc1)c1ccco1 -8.53%
O=C(Nc1ccc(S(=O)(=O)N(Cc2ccccc2)c2ccccc2)cc1)c1ccc([N+](=O)[O-])cc1 -11%
Cc1ccc(NC(=O)C(=O)NCCc2csc3nc(-c4ccccc4C)nn23)cc1Cl -3.79%
